The other results are listed elsewhere or left out.
Experiments:
HSkMC = human skeletal muscle cells; experiment: cytotoxicity call (relative viability < 0.9); details: 10 µM
HepG2 = experiment: cytotoxicity call (relative viability < 0.9); details: 10 µM
S. aureus RN4220 = experiment: growth inhibition call (relative growth <= 0.2); details: 50 µM

CC(C)C[C@@H](N)C(=O)N[C@H]1C(=O)N[C@@H](CC(N)=O)C(=O)N[C@H]2C(=O)N[C@H]3C(=O)N[C@H](C(=O)N[C@H](C(=O)O)c4cc(O)cc(O)c4-c4cc3ccc4O)[C@H](O)c3ccc(c(Cl)c3)Oc3cc2cc(c3O[C@@H]2O[C@H](CO)[C@@H](O)[C@H](O)[C@H]2O[C@H]2C[C@](C)(N)[C@H](O)[C@H](C)O2)Oc2ccc(cc2Cl)[C@H]1O
cytotoxicity call (HSkMC): inactive
cytotoxicity call (HepG2): inactive
growth inhibition call (S. aureus RN4220): active

Cc1noc(C)c1S(=O)(=O)Nc1ccc2c(c1)C(=O)N([C@@H](C)CO)C[C@H](C)[C@H](CN(C)S(C)(=O)=O)O2
cytotoxicity call (HSkMC): inactive
cytotoxicity call (HepG2): inactive
growth inhibition call (S. aureus RN4220): inactive

Cc1noc(C)c1NC(=O)Nc1ccc2c(c1)C(=O)N([C@H](C)CO)C[C@H](C)[C@@H](CN(C)S(=O)(=O)c1cccs1)OCCCC[C@H](C)O2
cytotoxicity call (HSkMC): inactive
cytotoxicity call (HepG2): inactive
growth inhibition call (S. aureus RN4220): inactive

O=C(C[C@H]1CC[C@H]2[C@@H](COC[C@@H](O)CN2S(=O)(=O)c2cccc(Cl)c2)O1)N1CCOCC1
cytotoxicity call (HSkMC): inactive
cytotoxicity call (HepG2): inactive
growth inhibition call (S. aureus RN4220): inactive

C[C@H]1CN([C@@H](C)CO)C(=O)c2cc(Br)cnc2O[C@H]1CN(C)Cc1ccccc1C(=O)O
cytotoxicity call (HSkMC): inactive
cytotoxicity call (HepG2): inactive
growth inhibition call (S. aureus RN4220): inactive

COc1ccc(NC(=O)N(C)C[C@@H]2Oc3ncc(C#CCN(C)C)cc3C(=O)N([C@@H](C)CO)C[C@@H]2C)cc1
cytotoxicity call (HSkMC): inactive
cytotoxicity call (HepG2): inactive
growth inhibition call (S. aureus RN4220): inactive

COc1ccc(CCNC(=O)[C@@]2(Sc3ccc(C)cc3)CC(=O)N(Cc3ccccc3C(F)(F)F)[C@@H]2c2ccc(CO)cc2I)cc1
cytotoxicity call (HSkMC): inactive
cytotoxicity call (HepG2): inactive
growth inhibition call (S. aureus RN4220): inactive

CCCC(=O)Nc1ccc2c(c1)OC[C@@H](C)N(C(=O)Cc1ccccn1)C[C@@H](C)[C@H](OC)CN(C)C2=O
cytotoxicity call (HSkMC): inactive
cytotoxicity call (HepG2): inactive
growth inhibition call (S. aureus RN4220): inactive

CC(C)(C)OC(=O)CC[C@]1(C(=O)NCCN2CCOCC2)COC(c2ccc(OCCCO)cc2)=N1
cytotoxicity call (HSkMC): inactive
cytotoxicity call (HepG2): inactive
growth inhibition call (S. aureus RN4220): inactive

COc1ccc2c3c([nH]c2c1)[C@@H](CO)N(C[C@]13CCN(CC1)C(=O)NC(C)C)C(=O)CN1CCOCC1
cytotoxicity call (HSkMC): inactive
cytotoxicity call (HepG2): inactive
growth inhibition call (S. aureus RN4220): inactive

CNc1[nH]cnc(=S)c1N
cytotoxicity call (HSkMC): inactive
cytotoxicity call (HepG2): inactive
growth inhibition call (S. aureus RN4220): inactive

C[C@H](CO)N1C[C@H](C)[C@H](CN(C)C(=O)Nc2ccccc2)Oc2cc(C#CC3(O)CCCC3)ccc2S1(=O)=O
cytotoxicity call (HSkMC): inactive
cytotoxicity call (HepG2): inactive
growth inhibition call (S. aureus RN4220): inactive

C[C@H](O)C#Cc1cnc2c(c1)C(=O)N([C@H](C)CO)C[C@H](C)[C@H](CN(C)C(=O)CN1CCOCC1)O2
cytotoxicity call (HSkMC): inactive
cytotoxicity call (HepG2): inactive
growth inhibition call (S. aureus RN4220): inactive

COCCNC(=O)C[C@@H]1C[C@@H]2c3cc(NC(=O)COC)ccc3O[C@@H]2[C@H](CO)O1
cytotoxicity call (HSkMC): inactive
cytotoxicity call (HepG2): inactive
growth inhibition call (S. aureus RN4220): inactive

C[C@@H]1CCCCO[C@H](CN(C)Cc2ccccc2)[C@H](C)CN([C@@H](C)CO)C(=O)c2cc(NC(=O)NC3CCCCC3)ccc2O1
cytotoxicity call (HSkMC): inactive
cytotoxicity call (HepG2): active
growth inhibition call (S. aureus RN4220): inactive

CCN1CCN(C(=O)NC(C(=O)NC2C(=O)N3C2SC(C)(C)C3C(=O)[O-])c2ccccc2)C(=O)C1=O.[Na+] (configuration not stated)
cytotoxicity call (HSkMC): inactive
cytotoxicity call (HepG2): inactive
growth inhibition call (S. aureus RN4220): active

C[C@H]1CN([C@@H](C)CO)C(=O)c2cc(C#Cc3ccccc3F)cnc2O[C@H]1CN(C)S(=O)(=O)c1ccccc1
cytotoxicity call (HSkMC): inactive
cytotoxicity call (HepG2): inactive
growth inhibition call (S. aureus RN4220): inactive

CC(C)NC(=O)Nc1ccc2c(c1)C(=O)N([C@@H](C)CO)C[C@H](C)[C@@H](CN(C)C(=O)C1CCCCC1)OCCCC[C@@H](C)O2
cytotoxicity call (HSkMC): inactive
cytotoxicity call (HepG2): inactive
growth inhibition call (S. aureus RN4220): inactive

C[C@@H]1CN([C@@H](C)CO)C(=O)c2cc(NC(=O)CCCCCC(=O)Nc3ccccc3N)ccc2O[C@@H](C)CCCCO[C@@H]1CN(C)C(=O)Nc1ccc(C(F)(F)F)cc1
cytotoxicity call (HSkMC): inactive
cytotoxicity call (HepG2): inactive
growth inhibition call (S. aureus RN4220): inactive

O=C(OC1Cc2c(O)cc(O)cc2OC1c1cc(O)c(O)c(O)c1-c1c(C2Oc3cc(O)cc(O)c3CC2OC(=O)c2cc(O)c(O)c(O)c2)cc(O)c(O)c1O)c1cc(O)c(O)c(O)c1 (configuration not stated)
cytotoxicity call (HSkMC): inactive
cytotoxicity call (HepG2): inactive
growth inhibition call (S. aureus RN4220): inactive

C[C@H]1CN([C@@H](C)CO)C(=O)Cc2cc(NC(=O)Nc3ccc4c(c3)OCO4)ccc2O[C@H]1CN(C)S(=O)(=O)c1cn(C)cn1
cytotoxicity call (HSkMC): inactive
cytotoxicity call (HepG2): inactive
growth inhibition call (S. aureus RN4220): inactive

CC(C)C1=CC2=CCC3C(C)(C(=O)O)CCCC3(C)C2CC1 (configuration not stated)
cytotoxicity call (HSkMC): inactive
cytotoxicity call (HepG2): inactive
growth inhibition call (S. aureus RN4220): active

CC[n+]1oc(-c2ccccc2)cc1C
cytotoxicity call (HSkMC): inactive
cytotoxicity call (HepG2): active
growth inhibition call (S. aureus RN4220): inactive

C[C@@H]1CN([C@@H](C)CO)C(=O)c2cccc(NC(=O)C3CC3)c2O[C@@H]1CN(C)S(=O)(=O)c1cn(C)cn1
cytotoxicity call (HSkMC): inactive
cytotoxicity call (HepG2): inactive
growth inhibition call (S. aureus RN4220): inactive
